In paper PMC7215714, “Para-Halogenation of Amphetamine and Methcathinone Increases the Mitochondrial Toxicity in Undifferentiated and Differentiated SH-SY5Y Cells” (International Journal of Molecular Sciences, 2020):

Key:
[1] = system: undifferentiated and differentiated SH-SY5Y cells; test: Mitochondrial superoxide production (MitoSOX Red); type: cell-based, human; settings: for Concentration at which mitochondrial superoxide production started to increase: 24 h
[2] = system: undifferentiated and differentiated SH-SY5Y cells; test: Mitochondrial membrane potential (JC-1 staining); type: cell-based, human
[3] = system: caspases 3 and 9 in SH-SY5Y cells; test: Western blotting of cleaved caspase 3 and 9; type: cell-based, human; settings: 2000 μM, 6 h, both undifferentiated and differentiated SH-SY5Y cells
[4] = system: undifferentiated and differentiated SH-SY5Y cells; test: Cellular oxygen consumption (Seahorse XF96)
[5] = system: undifferentiated and differentiated SH-SY5Y cells; test: Annexin V/propidium iodide staining (apoptosis/necrosis, flow cytometry); type: cell-based, human
[6] = system: undifferentiated and differentiated SH-SY5Y cells; test: Cell membrane integrity, adenylate kinase (AK) release (ToxiLight); type: cell-based, human; settings: for IC50 / Concentration at which significantly membrane toxic: 24 h; for IC50: read-out: MT (IC50), membrane toxicity; for Concentration at which significantly membrane toxic: undifferentiated SH-SY5Y
[7] = system: undifferentiated and differentiated SH-SY5Y cells; test: Intracellular ATP content (CellTiter-Glo); type: cell-based, human
[8] = differentiated SH-SY5Y cells, 6 h
[9] = undifferentiated SH-SY5Y cells, 6 h
[10] = differentiated (diff) SH-SY5Y cells
[11] = undifferentiated (und) SH-SY5Y cells
[12] = differentiated (diff) SH-SY5Y cells, 24 h, read-out: ATP (IC50), ATP depletion
[13] = undifferentiated (und) SH-SY5Y cells, 24 h, read-out: ATP (IC50), ATP depletion
[14] = undifferentiated and differentiated SH-SY5Y cells

SMILES	O− production, lowest concentration with significant toxic effect ([1]; Table S1, und) [mM]	Concentration at which mitochondrial superoxide production started to increase ([1]; differentiated SH-SY5Y cells) [µM]	Concentration at which mitochondrial superoxide production started to increase ([1]; undifferentiated SH-SY5Y cells) [µM]	MMP, lowest concentration with significant toxic effect ([2]; Table S1, diff) [mM]	MMP, lowest concentration with significant toxic effect ([2]; Table S1, und) [mM]	Effect on Δψm ([2]; both cell models, 24 h)	Necrosis: starting concentration [5, 8] [µM]	Cytotoxicity, lowest concentration with significant toxic effect ([6]; Table S1, diff) [mM]	Cytotoxicity, lowest concentration with significant toxic effect ([6]; Table S1, und) [mM]	IC50 [6, 10] [mM]	IC50 [6, 11] [mM]	Concentration at which significantly membrane toxic [6] [µM]	IC50 [7, 12] [mM]	Concentration at which intracellular ATP content started to decrease ([7]; differentiated cells, 24 h)	IC50 [7, 13] [mM]	Concentration at which intracellular ATP content started to decrease ([7]; undifferentiated cells, 24 h) [µM]	further results
CNC(C)C(=O)c1ccc(Cl)cc1 (stereo not drawn) [4-CMC, 4-chloromethcathinone]	2	2000	2000	2	0.5	decreased the Δψm in a concentration-dependent manner	2000	2	2	> 2	> 2	2000	1.33	1000 µM	1.43	500	O− production, lowest concentration with significant toxic effect ([1]; Table S1, diff): 2 mM; Abundance of cleaved caspase 3 [3]: increased the abundance of cleaved caspase 3; OCR, lowest concentration with significant toxic effect ([4]; Table S1, diff): 0.2 mM; OCR, lowest concentration with significant toxic effect ([4]; Table S1, und): 0.5 mM; Concentration reaching statistical significance for decrease of basal and FCCP-stimulated respiration ([4]; differentiated cells, 24 h): 200 µM; Concentration reaching statistical significance for decrease of basal and FCCP-stimulated respiration ([4]; undifferentiated cells, 24 h): 500 µM; Apoptosis, lowest concentration with significant toxic effect ([5]; Table S1, diff): 1 mM; Apoptosis, lowest concentration with significant toxic effect ([5]; Table S1, und): 2 mM; Apoptosis: concentration reaching statistical significance [5, 8]: 1000 µM; Apoptosis: concentration reaching statistical significance [5, 9]: 2000 µM; Apoptosis: starting concentration [5, 9]: 1000 µM; ATP depletion, lowest concentration with significant toxic effect ([7]; Table S1, diff): 1 mM; ATP depletion, lowest concentration with significant toxic effect ([7]; Table S1, und): 0.5 mM; IC50 ([7]; both cell types, summary in abstract, read-out: IC50 values for cellular ATP depletion (in the range of)): ~1.4 mM
CC(N)Cc1ccc(F)cc1 (stereo not drawn) [4-FA, 4-fluoroamphetamine]	2	2000	2000	0.5	1	decreased the Δψm in a concentration-dependent manner	2000	2	2	–	–	2000	–	–	–	–	Effect on oxidative metabolism ([4]; SH-SY5Y cells, 24 h): did not affect the oxidative metabolism; Necrosis: starting concentration [5, 9]: 2000 µM; IC50 ([6]; Homo sapiens, SH-SY5Y, differentiated (diff) SH-SY5Y cells): > 2 mM; IC50 ([6]; Homo sapiens, SH-SY5Y, undifferentiated (und) SH-SY5Y cells): > 2 mM; IC50 ([7]; Homo sapiens, SH-SY5Y, 24 h, differentiated (diff) SH-SY5Y cells, 24 h, read-out: ATP (IC50), ATP depletion): 1.41 mM; IC50 ([7]; Homo sapiens, SH-SY5Y, 24 h, undifferentiated (und) SH-SY5Y cells, 24 h, read-out: ATP (IC50), ATP depletion): 1.44 mM; IC50 ([7]; Homo sapiens, SH-SY5Y, both cell types, summary in abstract, read-out: IC50 values for cellular ATP depletion (in the range of)): ~1.4 mM
CNC(C)C(=O)c1ccc(F)cc1 (stereo not drawn) [4-FMC, 4-fluoromethcathinone]	–	–	–	–	–	–	–	–	–	> 2	> 2	–	> 2	did not significantly decrease the cellular ATP pool	> 2	> 2000	Δψm: not toxic up to ([2]; both cell models, 24 h): > 2000 µM; Basal and stimulated (maximal) respiration: no significant effect up to ([4]; both cell types, 24 h): > 1000 µM; Membrane toxicity: no toxicity up to [6, 14]: > 2000 µM; Intracellular ATP content: no toxicity up to [7, 14]: > 2000 µM
